Results as given in the supplement of paper PMC10126150.
Sequences with one replicate were seen in a single cluster, so their values are uncertain.

System: ATP
Assay: switch fluorescence ratio, 500 uM ATP over buffer (Cy3 cluster intensity, sum of 5 cycles each) (fold (ratio)); higher = stronger signal-on switching upon ATP binding; sequences stand for … in TCGTCGGCAGCGTCAGATGTGTATAAGAGACAGTTTTTTTTTTTTTTTTTTTTTTTTT…TC
Conditions: aptamer strand: ATP DNA aptamer (quencher-CACCTGGGGGAGTATTGCGGAGGAAGG + anchor), 100 nM annealed; ATP concentration: 500 uM; one replicate
Outline: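 After annealing to 100 nM quencher-labelled ATP aptamer, Cy3-labelled switching-strand clusters on a modified Illumina MiSeq flow-cell were imaged in selection buffer. A second image followed after 15 min with 500 uM ATP at 22 °C, and five such buffer/ATP cycles were done, each separated by NaOH stripping and re-annealing. The fluorescence ratio, averaged per switch-domain sequence, is summed target-cycle over summed buffer-cycle Cy3 intensity per cluster, with clusters outside 100-1000 RFU excluded.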
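Further: ATP exposure 15 min at 22 °C before imaging.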

Sequence	switch fluorescence ratio
AAAAAGCTCT	1.01
AAAAATATCC	0.949
AAAAATCAGA	0.975
AAAAATGCCC	1.11
AAAAATGT	0.973
AAAAATTCGA	1.06
AAAAATTGAG	0.989
AAAACAGCGA	1.03
AAAACCGGGC	1.09
AAAACCGTAC	1.76
AAAACCTATG	1.01
AAAACGGGCC	1.01
AAAACGGTCT	1.03
AAAAGAACTT	1
AAAAGAGGTA	1.08
AAAAGCAAAT	1.01
AAAAGCACGT	0.981
AAAAGCCTAA	1.04
AAAAGCGCCT	1.14
AAAAGCGCGT	1.15
AAAAGGTGAG	0.991
AAAAGTGTG	0.993
AAAAGTTTAA	0.966
AAAAGTTTCA	1
AAAATAAAGT	0.988
AAAATCAACC	1.06

Sequence	switch fluorescence ratio
AAAATCAGAT	1.01
AAAATCCGG	1.01
AAAATCGTAA	1
AAAATCTAGA	0.997
AAAATCTAGG	1.07
AAAATCTCCA	1.03
AAAATGTAAA	1
AAAATGTG	0.996
AAAATTCGG	1.01
AAAATTCTTC	1.05
AAAATTGGAT	1
AAAATTTCCT	1.11
AAAATTTGAT	1.02
AAACAATGGC	1.31
AAACACAATT	1.02
AAACACCCG	1.05
AAACACGATT	1.05
AAACACTATC	1.14
AAACAGCCAG	1.02
AAACAGCGCA	1.02
AAACATAGAC	1.04
AAACCATAGG	0.93
AAACCATGGG	1
AAACCCCATT	1.25
AAACCCGGGT	1.06
AAACCCTCCG	1.37

Sequence	switch fluorescence ratio
AAACCCTCGA	1.04
AAACCTTGTG	1.03
AAACGAGACT	1.04
AAACGATTAC	1.22
AAACGCGTTT	1
AAACGCTTGG	1.02
AAACGGATCT	0.986
AAACGGCAGA	1.01
AAACGGGGTG	1
AAACGGGTTT	0.97
AAACGGTGTA	1
AAACGTACCT	1.53
AAACTAAAGG	1.02
AAACTAAGTA	1.01
AAACTACGAT	1.12
AAACTATCAT	0.98
AAACTCTAGG	0.99
AAACTGCGTG	0.949
AAACTTAGTC	1.01
AAAGAAATAG	0.993
AAAGAAATGA	0.958
AAAGAAGTTA	0.982
AAAGAGGTTA	0.999
AAAGATCAT	1.02
AAAGCATGCT	0.971
AAAGCCCTCG	1.01

Sequence	switch fluorescence ratio
AAAGCCGAGG	0.956
AAAGCCGATA	1.07
AAAGCGAGGG	1.04
AAAGCGCCGA	0.941
AAAGCGGCT	1
AAAGCTCACG	1.11
AAAGGC	1.15
AAAGGGATTT	0.972
AAAGGGGCA	1.04
AAAGGGGCGT	0.981
AAAGGGTCC	1
AAAGGGTCGG	1.02
AAAGGTCTCA	0.945
AAAGGTCTTG	1.03
AAAGGTGATC	0.944
AAAGGTTCCT	1.01
AAAGTAATAG	1.14
AAAGTACCAG	1.13
AAAGTAGGGG	0.999
AAAGTATAAT	1.03
AAAGTATGTT	0.999
AAAGTCGAGA	0.982
AAAGTCGAGC	0.965
AAAGTGAGAG	1
AAAGTGCGTC	0.991
AAAGTTAGCT	0.984

Sequence	switch fluorescence ratio
AAAGTTCATA	0.993
AAAGTTGTTC	1.05
AAATAACCAT	1.04
AAATAAGCTA	1
AAATAATTAT	1
AAATACGAGC	1.05
AAATAGAGGG	1.02
AAATAGATC	0.962
AAATAGGAAG	1.02
AAATAGGACT	0.997
AAATAGGATT	1.03
AAATATAGAT	1.01
AAATATATTT	1.03
AAATATTGT	0.978
AAATCCACCG	1.13
AAATCGTAAG	1
AAATCTACGT	1.03
AAATCTATGT	0.994
AAATCTCCCT	1.13
AAATCTCCGT	1.09
AAATCTTATG	1.01
AAATGCATGG	0.976
AAATGCCACT	0.925
AAATGCGCAT	0.984
AAATTACAGC	1.02
AAATTAGGAC	1.05

Sequence	switch fluorescence ratio
AAATTAGTGA	0.992
AAATTATAAC	0.997
AAATTATAG	1.01
AAATTATCAA	0.955
AAATTGACGC	1.06
AAATTGTTAC	1.05
AAATTTCAAC	1
AAATTTCGCA	1.03
AAATTTCGGC	0.95
AAATTTGTAT	1.01
AACAAAAATT	1.17
AACAAAAGGC	0.982
AACAAACTAA	1.04
AACAAAGTC	1
AACAAGGTTC	1.02
AACAATCGTG	0.973
AACAATTGAT	0.977
AACACTATTA	0.999
AACACTTAGG	1.03
AACAGCCCTA	0.987
AACAGGGCTT	1
AACAGGTTAA	1.01
AACAGTAAAT	1.02
AACAGTAAGG	1.09
AACATAGAGC	1.03
AACATAGGGT	0.985

Sequence	switch fluorescence ratio
AACATCTTTA	1.01
AACATGATGT	0.964
AACATGTT	1.06
AACATTCCTA	1.34
AACATTCTAG	0.97
AACATTGGGA	1.06
AACATTGTAT	0.96
AACATTTGTC	0.971
AACCATATAT	1.02
AACCATCGCG	0.976
AACCCCGATA	1.07
AACCCCTGGG	1.04
AACCCGACAG	1.08
AACCCGACGG	1.14
AACCCGATTC	1.05
AACCCTATCC	1.6
AACCCTTTAA	0.993
AACCGAGCGA	1.87
AACCGAGCTC	1.57
AACCGGGGTG	1.02
AACCGGGTTT	0.989
AACCGTCGGA	1.02
AACCGTGGT	1.02
AACCGTTAGA	1.05
AACCTAAAGA	1.02
AACCTGAATG	1.07

Sequence	switch fluorescence ratio
AACCTGAGAA	0.953
AACCTGCCAA	1.72
AACCTTCAGG	1.06
AACCTTTACG	1.26
AACGAAGGGG	1.05
AACGACAAGA	1.48
AACGACATAC	2.92
AACGACGGGC	1.26
AACGAGAGT	0.999
AACGAGATTA	1.06
AACGAGGAGG	0.94
AACGAGTGAA	1.03
AACGATACGA	1.36
AACGATATTT	1.01
AACGATGCTT	1.07
AACGCAAGTG	1.05
AACGCACCGG	1.49
AACGCACCTC	1.55
AACGCCCACA	1.27
